Measurements reported in PubChem BioAssay AID624296 (National Center for Advancing Translational Sciences (NCATS), 2012).
Screen size: about 350,000 compounds; about 9,900 (2.8%) were called active. Inconclusive means that the source gave no clear call. Such entries were picked first, then a sample of the others. The call rests on the fitted dose curve; in most records, active means well fitted activation curve with a large enough effect; inconclusive means small, poorly fitted or top-dose-only effect; inactive means no such curve, though single readings can be large or run the other way. Potencies of inconclusive entries are left out as doubtful fits.

Test: A quantitative high throughput screen for small molecules that induce DNA re-replication in MCF 10a normal breast cells. Further: nearly all actives have a fitted effect of over 50% in size. On activity, positive = re-replication: % of control where 0% means no effect.
Conditions: MCF 10A DNA re-replication, Hoechst nuclear intensity, 48 h; activity, positive = re-replication: at 46.1 µM (top of the series)
Potency means the concentration at half of the fitted maximal effect; tags describe the fitted curve by direction and shape.

| SMILES | Potency | activity, positive = re-replication |
| --- | --- | --- |
| Cc1ccccc1NC(=O)CN1C(=O)S/C(=C\c2ccc(-c3cc(C(=O)O)ccc3C)o2)C1=O | inconclusive [activator, single point] | – |
| C=C1C(=O)C23C(O)C1CCC2C12CCCC(C)(COC(C)=O)C1C(O)C3(O)OC2 (stereo unspecified) | active: 0.731 µM | – |
| O=C(O[C@@H](C(=O)O)[C@@H](OC(=O)c1ccccc1)C(=O)O)c1ccccc1 | inconclusive [activator, full curve, poor fit] | – |
| COc1ccc(N/C=C/c2nc(SC)nnc2C)cc1 | inconclusive [activator, single point] | – |
| O=C(NC(=S)Nc1ccc(CN2CCOCC2)cc1)c1ccc(-c2cccc(Cl)c2)o1 | inconclusive [activator, partial curve, poor fit] | – |
| CC1=C(C(=O)Nc2ccccc2)C(c2cccs2)C(C#N)=C(SCC#N)N1 (stereo unspecified) | inconclusive [activator, single point] | – |
| Cc1cc(C)c(C#N)c(SCc2nc3ccccc3[nH]2)n1 | active: 12.6 µM | – |
| CN(CC(=O)Nc1ccccc1Cl)C(=O)C1CSC2(C)CCC(=O)N12 (stereo unspecified) | – | inactive: 12.3% |
| COc1ccc(-c2sc3ccccc3c2C#CCCO)cc1 | inconclusive [activator, single point] | – |
| O=C(Nc1nccs1)c1ccc(Br)c(S(=O)(=O)N2CCOCC2)c1 | – | inactive: -37.4% |
| COc1cccc(C2NC(=O)NC(C)=C2C(=O)Nc2ccc(C)cc2)c1 (stereo unspecified) | – | inactive: 1.11% |
| CC(C)OC(=O)/C(C#N)=C/c1cn(C)c2ccccc12 | – | inactive: 12.8% |
| Cc1c(C(=O)NCCSCc2ccco2)cccc1[N+](=O)[O-] | inconclusive [activator, single point] | – |
| CCSc1nnc(NC(=O)NC(CC)(C(F)(F)F)C(F)(F)F)s1 | inconclusive [activator, single point] | – |
| COc1ccc2[nH]c3c(NCCC4=CCCCC4)ncnc3c2c1 | active: 20.6 µM | – |
| CN(C)C(C)(C)C#CC(O)(c1ccccc1)c1ccccc1 | inconclusive [activator, single point] | – |
| O=C(Nc1ccc2oc(-c3ccncc3)nc2c1)c1ccc2c(c1)OCCO2 | inconclusive [activator, single point] | – |
| CC(=O)N1CCN(c2ccc(NC(=S)NC(=O)c3ccccc3)cc2)CC1 | inconclusive [activator, single point] | – |
| COc1ccc(C(=O)Nc2cc3c(cc2OC)CCCC3)cc1Br | inconclusive [activator, partial curve, poor fit] | – |
| C/C(=N\Nc1nc2ccccc2[nH]1)c1cc2ccccc2o1 | inconclusive [activator, single point] | – |
| COc1ccc(NS(=O)(=O)c2ccc(NS(=O)(=O)c3cccc(C(=O)O)c3)cc2)cc1 | – | inactive: 0.586% |
| Cc1cc(OCC(O)CN2CCc3ccccc3C2)cc(C(C)C)c1 (stereo unspecified) | inconclusive [activator, single point] | – |
| NS(=O)(=O)c1ccc(CCNC(=O)c2cc(-c3ccccc3)nc3ccccc23)cc1 | inconclusive [activator, single point] | – |
| CS(=O)(=O)N1CCC(CO)(Cc2ccccc2C(F)(F)F)CC1 | inconclusive [activator, partial curve, poor fit] | – |

| SMILES | Potency | activity, positive = re-replication |
| --- | --- | --- |
| O=C(O)CSc1ncnc2c1oc1ccccc12 | inconclusive [activator, full curve, poor fit] | – |
| Cc1ccc(CC(=O)Nc2ccc(OC(F)F)c(Cl)c2)cc1C | inconclusive [activator, single point] | – |
| NC(=O)CC(NC(=O)Cc1ccc(Cl)cc1)c1ccc(NC2CCCCCCC2)c([N+](=O)[O-])c1 (stereo unspecified) | inconclusive [activator, single point] | – |
| Cc1cccc(NC(=S)N2CCCCC2)c1 | inconclusive [activator, single point] | – |
| CCOCCCNC(=O)CCS(=O)(=O)Cc1ccc(C)cc1 | inconclusive [activator, partial curve, poor fit] | – |
| CN(C(=O)c1ccc(NC(=O)Cc2ccc(NC(=O)C3CCN(S(=O)(=O)c4cccc([N+](=O)[O-])c4)CC3)cc2)cc1)C1CCCC1 | – | inactive: -20.8% |
| CC(=O)Nc1ccc(-c2csc(NC(=O)C3CSC4(C)CCC(=O)N34)n2)cc1 (stereo unspecified) | – | inactive: 6.75% |
| CC(C)=CC(=O)N1CCC(N2CCC(C(=O)NCC3CCCO3)CC2)CC1 (stereo unspecified) | – | inactive: -2.11% |
| COc1cc2c(cc1[N+](=O)[O-])-c1ccccc1C2 | – | inactive: 1.68% |
| COCCNC(=O)/C(C#N)=C/c1c(N2CC(C)OC(C)C2)nc2ccccn2c1=O (stereo unspecified) | – | inactive: 2% |
| CCOC(=O)c1cnc2c(C)c(Cl)ccc2c1Nc1ccc(S(=O)(=O)Nc2ncccn2)cc1 | – | inactive: 2.5% |
| O=C(Nc1ccc(C(=O)N2CCCC2)cc1)C1CCC1 | – | inactive: 1.85% |
| CS/C(Nc1cc(Cl)ccc1Cl)=C(/C#N)C(=O)c1ccco1 | inconclusive [activator, partial curve, poor fit] | – |
| CCCCOc1ccc(CSC(=N)N)cc1[N+](=O)[O-] | inconclusive [activator, partial curve, poor fit] | – |
| O=C(NC(=S)Nc1ccc(Cc2ccncc2)cc1)c1ccc(F)cc1 | inconclusive [activator, partial curve, poor fit] | – |
| CCCc1ccc(C(C)NC(=S)NCc2ccc(F)cc2)cc1 (stereo unspecified) | – | inactive: 9.87% |
| O=C1NCCN(Cc2cccc(Oc3ccccc3)c2)C1CC(=O)N1CCCO1 (stereo unspecified) | – | inactive: 11.5% |
| COc1cc([N+](=O)[O-])cc(/C=N/NC(=O)C(O)(c2ccccc2)c2ccccc2)c1O | inconclusive [activator, single point] | – |
| Cc1ccc(S(=O)(=O)N(C)c2ccc(N)cc2)cc1 | – | inactive: 3.07% |
| COc1ccc(NC(=S)NC(=NS(=O)(=O)c2ccc(Cl)cc2)c2ccccc2)cc1 | inconclusive [activator, single point] | – |
| O=C(CCC1CCCCC1)NNC(=O)c1cnccn1 | inconclusive [activator, single point] | – |
| Cc1noc(C)c1CSCC(=O)Nc1cc(C(F)(F)F)ccc1N1CCCCC1 | inconclusive [activator, single point] | – |
| Cc1ccc(NNC(=O)CCc2ccccc2)c(C)c1 | – | inactive: -0.42% |
| CCOC(=O)c1sc(NC(=S)NC(=O)c2ccco2)nc1C | inconclusive [activator, partial curve, poor fit] | – |

| SMILES | Potency | activity, positive = re-replication |
| --- | --- | --- |
| COc1cccc2oc3ccc(C#Cc4ccccn4)cc3c(=O)c12 | – | inactive: 5.51% |
| O=C(CSc1nc(N2CCOCC2)nc(N2CCOCC2)n1)Nc1cccc(C(F)(F)F)c1 | – | inactive: 4.76% |
| CC1CCN(S(=O)(=O)c2ccc(C(=O)Nc3nnc(C4CC4)o3)cc2)CC1 | inconclusive [activator, partial curve, poor fit] | – |
| CC(=O)c1cccc(NC(=O)c2cnn3ccccc23)c1 | – | inactive: -9.15% |
| COc1ccccc1CN(Cc1nc2ccccc2c(=O)[nH]1)S(=O)(=O)c1ccc2ccccc2c1 | – | inactive: -18.3% |
| O=C(CNCCC1=CCCCC1)Nc1ccc(N2CCCCCC2)cc1 | inconclusive [activator, single point] | – |
| C/C(O)=C(\C#N)c1nc2ccccc2[nH]1 | – | inactive: 11.9% |
| CCc1ccc(-n2nc3cc(C)c(N)cc3n2)cc1 | inconclusive [activator, single point] | – |
| Cc1cc(C)c2sc(N(CCN(C)C)C(=O)c3c(F)cccc3F)nc2c1 | inconclusive [activator, single point] | – |
| COC(=O)c1cccc(-c2ccc(C(c3c(C)[nH][nH]c3=O)c3c(C)[nH][nH]c3=O)o2)c1 | inconclusive [activator, single point] | – |
| C=C(CC[C@@H](O)C(C)(C)O)[C@H]1CC[C@]2(C)[C@@H]1CCC1[C@@]3(C)CCC(=O)C(C)(C)C3CC[C@]12C (stereo partly specified) | inconclusive [activator, single point] | – |
| O=C1NC2(CCCCC2)N(C(=O)c2ccccc2)C2=C1CCCC2 | inconclusive [activator, single point] | – |
| CCOCCn1c(CN2CCN(C)CC2)nc2c1c(=O)n(C)c(=O)n2C | – | inactive: 0.651% |
| O=C(Nc1nc(-c2ccc(F)c(F)c2)cs1)Nc1ccc(F)cc1F | inconclusive [activator, partial curve, poor fit] | – |
| O=C(CCNc1ccc(Br)cc1)c1cccc([N+](=O)[O-])c1 | inconclusive [activator, single point] | – |
| CC(=O)Oc1cc2c(c3ccccc13)CCC2=O | – | inactive: 14.8% |
| CCN(Cc1nc2cc(Cl)ccc2c(=O)[nH]1)C(=O)c1nn(C)c(=O)c2ccccc12 | – | inactive: -2.39% |
| CCOC(=O)C1CCCN(C(=O)CN2C(=O)c3ccccc3C2=O)C1 (stereo unspecified) | – | inactive: 0.216% |
| COc1ccccc1N/C(N)=N/c1nc(C(F)(F)F)cc(=O)[nH]1 | inconclusive [activator, single point] | – |
| Nc1ccc2nc(SCC(=O)N3CCN(c4ccccc4)CC3)sc2c1 | – | inactive: -4.23% |
| O=C(Nc1cccc(-c2nc3ccccc3[nH]2)c1)c1ccc(C(=O)Nc2cccc(-c3nc4ccccc4[nH]3)c2)cc1 | – | inactive: 1.27% |
| COC(=O)/C=c1/s/c(=C(/C#N)C(=O)NCc2ccccc2)n(-c2ccccc2)c1=O | inconclusive [activator, partial curve, poor fit] | – |
| Cc1cccc(N2CCN(C(=O)c3ccccc3NC(=O)C3=CSCCO3)CC2C)c1 (stereo unspecified) | inconclusive [activator, partial curve, poor fit] | – |
